pIC50: −log10 of the molar value. By IC50 is meant the dose at which the fit gives 50% viability; fits outside the tested doses are given as limits. For AUC the same curve is integrated over the 256-fold range of doses and scaled to a fraction; the more sensitive the line, the further below 1. For some assays here: Where the top dose is marked as inferred, it was calculated from the reported fits.
What was measured:
Test in all cases: Viability of human cancer cell lines after 72 h of drug (GDSC screen)
Paclitaxel = compound: CC(=O)O[C@H]1C(=O)[C@@]2(C)[C@H]([C@H](OC(=O)c3ccccc3)[C@]3(O)C[C@H](OC(=O)[C@H](O)[C@@H](NC(=O)c4ccccc4)c4ccccc4)C(C)=C1C3(C)C)[C@]1(OC(C)=O)CO[C@@H]1C[C@@H]2O [Paclitaxel]; details: top dose 0.1024 µM
Protocol: (§1)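 Human cancer cell lines in 384-well plates, medium with 10% serum, drug for 72 h over a 256-fold dose range (nine 2-fold or five 4-fold steps up to the top dose). Adherent lines were fixed and stained with the nucleic acid dye Syto60, suspension lines read with resazurin; signal relative to control wells, capped at 0 and 100%. One two-parameter sigmoid per drug and line, fitted in a mixed model over all curves with the slope shared within a line.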

CP724714 = compound: COCC(=O)NC/C=C/c1ccc2ncnc(Nc3ccc(Oc4ccc(C)nc4)c(C)c3)c2c1 [CP724714]; details: top dose 10.24 µM; top dose inferred
Protocol: as §1

Obatoclax mesylate = compound: COC1=CC(c2cc3ccccc3[nH]2)=N/C1=C\c1[nH]c(C)cc1C [Obatoclax mesylate]; details: top dose 16 µM
Protocol: as §1

CX-5461 = compound: Cc1cnc(CNC(=O)c2c(=O)c3ccc(N4CCCN(C)CC4)nc3n3c2sc2ccccc23)cn1 [CX-5461]; details: top dose 10.24 µM; top dose inferred
Protocol: as §1

STF-62247 = compound: Cc1cccc(Nc2nc(-c3ccncc3)cs2)c1 [STF-62247]; details: top dose 10.24 µM; top dose inferred
Protocol: as §1

Bortezomib = compound: CC(C)C[C@H](NC(=O)[C@H](Cc1ccccc1)NC(=O)c1cnccn1)B(O)O [Bortezomib]; details: top dose 0.02 µM
Protocol: as §1

Row | Cell Line | AUC (Paclitaxel) | pIC50 (Paclitaxel) | AUC (CP724714) | pIC50 (CP724714) | AUC (Obatoclax mesylate) | pIC50 (Obatoclax mesylate) | AUC (CX-5461) | pIC50 (CX-5461) | AUC (STF-62247) | pIC50 (STF-62247) | AUC (Bortezomib) | pIC50 (Bortezomib)
1 | SCC-15 (head and neck, adherent) | 0.939 | < 6.99 | 0.958 | < 4.99 | 0.171 | 7.18 | 0.912 | < 4.99 | 0.976 | < 4.99 | 0.963 | < 7.70
2 | SCH (stomach, adherent) | 0.934 | < 6.99 | 0.981 | < 4.99 | 0.961 | < 4.80 | 0.988 | < 4.99 | 0.988 | < 4.99 | 0.927 | < 7.70
3 | SF126 (glioma, adherent) | 0.842 | 7.11 | 0.986 | < 4.99 | 0.296 | 6.59 | 0.89 | < 4.99 | 0.986 | < 4.99 | 0.332 | 9.38
4 | SF268 (glioma, adherent) | 0.551 | 8.05 | 0.978 | < 4.99 | 0.159 | 7.09 | 0.777 | 5.35 | 0.978 | < 4.99 | 0.501 | 8.90
5 | SF539 (glioma, adherent) | 0.731 | 7.57 | 0.99 | < 4.99 | 0.224 | 6.76 | 0.99 | < 4.99 | 0.954 | < 4.99 | 0.718 | 8.32
6 | SH-4 (melanoma, adherent) | 0.525 | 8.11 | 0.96 | < 4.99 | 0.071 | > 7.20 | 0.97 | < 4.99 | 0.969 | < 4.99 | 0.226 | 9.91
7 | SHP-77 (small cell lung carcinoma, semi-adherent) | 0.96 | < 6.99 | 0.896 | < 4.99 | 0.588 | 5.77 | 0.813 | 5.32 | 0.984 | < 4.99 | 0.641 | 8.53
8 | SIG-M5 (acute myeloid leukaemia, suspension) | 0.444 | 8.33 | 0.957 | < 4.99 | 0.075 | 7.15 | 0.348 | 6.56 | 0.979 | < 4.99 | 0.686 | 8.45
9 | SIMA (neuroblastoma, adherent) | 0.835 | 7.10 | 0.97 | < 4.99 | 0.421 | 6.23 | 0.486 | 6.23 | 0.985 | < 4.99 | 0.865 | < 7.70
10 | SJSA-1 (bone, adherent) | 0.671 | 7.69 | 0.983 | < 4.99 | 0.238 | 6.81 | 0.903 | < 4.99 | 0.984 | < 4.99 | 0.577 | 8.68
11 | SK-ES-1 (Ewing sarcoma, semi-adherent) | 0.625 | 7.84 | 0.959 | < 4.99 | 0.194 | 6.94 | 0.3 | 6.77 | 0.947 | < 4.99 | 0.853 | 7.76
12 | SK-LMS-1 (soft tissue, adherent) | 0.449 | 8.33 | 0.981 | < 4.99 | 0.234 | 6.75 | 0.431 | 6.38 | 0.966 | < 4.99 | 0.443 | 9.05
13 | SK-MEL-1 (melanoma, suspension) | 0.976 | < 6.99 | 0.983 | < 4.99 | 0.855 | 5.00 | 0.993 | < 4.99 | 0.98 | < 4.99 | 0.926 | < 7.70
14 | SK-MM-2 (myeloma, suspension) | 0.982 | < 6.99 | 0.984 | < 4.99 | 0.354 | 6.41 | 0.73 | 5.53 | 0.936 | < 4.99 | 0.479 | 
15 | SK-N-DZ (neuroblastoma, adherent) | 0.851 | 7.12 | 0.958 | < 4.99 | 0.512 | 5.97 | 0.894 | < 4.99 | 0.97 | < 4.99 | 0.595 | 8.64
16 | SK-PN-DW (Ewing sarcoma, adherent) | 0.514 | 8.15 | 0.978 | < 4.99 | 0.165 | 7.04 | 0.521 | 6.14 | 0.982 | < 4.99 | 0.591 | 8.65
17 | SK-UT-1 (soft tissue, adherent) | 0.409 | 8.43 | 0.989 | < 4.99 | 0.209 | 6.81 | 0.974 | < 4.99 | 0.989 | < 4.99 | 0.199 | 9.75
18 | SLVL (B-cell lymphoma, suspension) | 0.674 | 7.69 | 0.982 | < 4.99 | 0.509 | 5.97 | 0.667 | 5.71 | 0.985 | < 4.99 | 0.51 | 8.87

Row | Cell Line | AUC (Paclitaxel) | pIC50 (Paclitaxel) | AUC (CP724714) | pIC50 (CP724714) | AUC (Obatoclax mesylate) | pIC50 (Obatoclax mesylate) | AUC (CX-5461) | pIC50 (CX-5461) | AUC (STF-62247) | pIC50 (STF-62247) | AUC (Bortezomib) | pIC50 (Bortezomib)
19 | SNB75 (glioma, adherent) | 0.624 | 7.79 | 0.978 | < 4.99 | 0.448 | 6.17 | 0.684 | 5.57 | 0.97 | < 4.99 | 0.509 | 8.87
20 | SNU-C1 (large intestine, suspension) | 0.853 | < 6.99 | 0.98 | < 4.99 | 0.855 | < 4.80 | 0.969 | < 4.99 | 0.98 | < 4.99 | 0.824 | < 7.70
21 | ST486 (Burkitt lymphoma, suspension) | 0.595 | 7.95 | 0.983 | < 4.99 | 0.061 | > 7.20 | 0.572 | 6.01 | 0.854 | 5.18 | 0.728 | 8.29
22 | SU-DHL-1 (anaplastic large cell lymphoma, suspension) | 0.974 | < 6.99 | 0.995 | < 4.99 | 0.529 | 5.93 | 0.906 | 5.16 | 0.992 | < 4.99 | 0.678 | 8.47
23 | SU-DHL-4 (B-cell lymphoma, suspension) | 0.554 | 8.06 | 0.997 | < 4.99 | 0.031 | > 7.20 | 0.927 | 5.10 | 0.995 | < 4.99 | 0.441 | 9.04
24 | SU-DHL-6 (B-cell lymphoma, suspension) | 0.356 | 8.55 | 0.974 | < 4.99 | 0.17 | 6.83 | 0.952 | < 4.99 | 0.902 | 5.14 | 0.341 | 9.29
25 | SU-DHL-8 (B-cell lymphoma, suspension) | 0.662 | 7.76 | 0.902 | < 4.99 | 0.056 | > 7.20 | 0.692 | 5.67 | 0.981 | < 4.99 | 0.431 | 9.09
26 | SU-DHL-16 (B-cell lymphoma, suspension) | 0.61 | 7.93 | 0.969 | < 4.99 | 0.103 | 7.01 | 0.878 | 5.24 | 0.991 | < 4.99 | 0.44 | 9.05
27 | SUP-HD1 (Hodgkin lymphoma, suspension) | 0.817 | 7.27 | 0.974 | < 4.99 | 0.389 | 6.30 | 0.839 | 5.19 | 0.963 | < 4.99 | 0.442 | 9.06
28 | SUP-M2 (anaplastic large cell lymphoma, suspension) | 0.426 | 8.38 | 0.961 | < 4.99 | 0.263 | 6.59 | 0.787 | 5.47 | 0.843 | 5.31 | 0.624 | 8.60
29 | SUP-T1 (T-cell lymphoblastic leukaemia, suspension) | 0.99 | < 6.99 | 0.975 | < 4.99 | 0.244 | 6.70 | 0.788 | 5.39 | 0.975 | < 4.99 | 0.953 | < 7.70
30 | SW684 (fibrosarcoma, adherent) | 0.981 | < 6.99 | 0.982 | < 4.99 | 0.821 | 4.81 | 0.983 | < 4.99 | 0.982 | < 4.99 | 0.468 | 9.01
31 | SW872 (soft tissue, adherent) | 0.808 | 7.33 | 0.989 | < 4.99 | 0.24 | 6.71 | 0.989 | < 4.99 | 0.989 | < 4.99 | 0.415 | 9.12
32 | SW954 (urogenital system, adherent) | 0.315 | 8.71 | 0.921 | < 4.99 | 0.372 | 6.36 | 0.621 | 5.86 | 0.974 | < 4.99 | 0.57 | 8.71
33 | SW962 (urogenital system, adherent) | 0.53 | 8.10 | 0.982 | < 4.99 | 0.162 | 7.17 | 0.784 | 5.26 | 0.981 | < 4.99 | 0.682 | 8.34
34 | TC-71 (Ewing sarcoma, adherent) | 0.81 | 7.37 | 0.976 | < 4.99 | 0.821 | 5.14 | 0.912 | < 4.99 | 0.99 | < 4.99 | 0.723 | 8.33
35 | TE-1 (oesophagus, adherent) | 0.494 | 8.21 | 0.963 | < 4.99 | 0.242 | 6.84 | 0.957 | < 4.99 | 0.982 | < 4.99 | 0.449 | 9.06

Source: the supplement of paper PMC4967469
